# Measurements from article PMC4336329 (PLoS ONE, 2015).
# Out of some 310,000 compounds screened, about 2,200 (0.71%) showed an effect of 50% or more. Effects have a minus sign here. The list shows a part of the results.
# Target: human ether-à-go-go-related gene (hERG) potassium channel (human, UniProt Q12809)
# Assay: primary screen, population patch clamp on CHO cells stably expressing hERG
# Chain of human ether-à-go-go-related gene (hERG) potassium channel (Q12809 whole entry, looked up): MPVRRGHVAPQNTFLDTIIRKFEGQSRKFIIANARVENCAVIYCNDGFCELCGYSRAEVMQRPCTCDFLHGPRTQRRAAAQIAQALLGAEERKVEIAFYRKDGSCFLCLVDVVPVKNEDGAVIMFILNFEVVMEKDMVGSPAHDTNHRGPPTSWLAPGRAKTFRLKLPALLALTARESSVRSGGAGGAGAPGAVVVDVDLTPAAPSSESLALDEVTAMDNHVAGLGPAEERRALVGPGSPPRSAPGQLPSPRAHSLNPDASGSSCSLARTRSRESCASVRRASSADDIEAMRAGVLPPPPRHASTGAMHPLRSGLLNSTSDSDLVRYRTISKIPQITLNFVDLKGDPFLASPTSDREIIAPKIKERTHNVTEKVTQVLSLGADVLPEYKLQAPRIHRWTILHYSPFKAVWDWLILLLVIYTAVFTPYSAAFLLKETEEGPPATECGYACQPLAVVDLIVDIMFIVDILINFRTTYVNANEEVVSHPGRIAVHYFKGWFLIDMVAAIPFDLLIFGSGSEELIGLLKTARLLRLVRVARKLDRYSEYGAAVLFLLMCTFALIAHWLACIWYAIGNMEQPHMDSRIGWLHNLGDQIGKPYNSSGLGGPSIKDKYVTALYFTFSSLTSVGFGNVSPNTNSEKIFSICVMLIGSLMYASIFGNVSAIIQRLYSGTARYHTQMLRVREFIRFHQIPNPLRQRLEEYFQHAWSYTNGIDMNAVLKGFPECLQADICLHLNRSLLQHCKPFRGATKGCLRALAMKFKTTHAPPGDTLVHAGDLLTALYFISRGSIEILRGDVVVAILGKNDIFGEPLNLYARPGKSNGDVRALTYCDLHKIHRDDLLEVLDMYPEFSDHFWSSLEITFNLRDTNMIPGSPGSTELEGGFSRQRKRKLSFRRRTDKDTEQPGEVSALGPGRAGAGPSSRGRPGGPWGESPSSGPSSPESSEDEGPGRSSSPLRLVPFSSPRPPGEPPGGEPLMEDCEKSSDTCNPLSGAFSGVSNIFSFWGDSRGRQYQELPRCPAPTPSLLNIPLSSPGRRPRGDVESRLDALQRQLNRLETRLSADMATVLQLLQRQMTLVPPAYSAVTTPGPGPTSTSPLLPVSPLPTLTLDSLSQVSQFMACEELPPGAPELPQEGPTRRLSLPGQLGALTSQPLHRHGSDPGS
row,SMILES,"hERG current change (%, negative = inhibition) at 1uM"
1,CN(C)C1(CNC(=O)c2ccc(NS(=O)(=O)c3ccc(Cl)c(Cl)c3)cc2)CCCCC1,-50.9%
2,N=C1c2ccccc2CN1c1cccc([N+](=O)[O-])c1,3.5%
3,CCNC(=O)CN(c1ccc(C)cc1)S(=O)(=O)c1ccc(SC)cc1,-2.13%
4,COCc1cc(=O)[nH]c2cc(NC(=O)C3CC3)c(C)cc12,14.1%
5,Nc1cncc(C(=O)O)c1 [26671297],8.02%
6,Cc1nc(C(=O)Nc2cc(F)cc(Cl)c2)sc1C1(C)CC(c2ccccc2)=NO1 (stereo not shown),6.67%
7,Fc1cccc(C2CCCCN2Cc2nc(C3CC3)no2)c1 (stereo not shown),8.25%
8,Cc1nnc(SCC(=O)Nc2sccc2C(N)=O)s1,0.842%
9,O=C(CSc1nnc(Nc2ccccc2F)s1)NC(=O)CN1CCCC1=O,6.01%
10,OC(CN1CCc2ccccc2C1)c1ccccc1 (stereo not shown),3.23%
11,COc1ccc2c(CC#N)c[nH]c2c1,9.42%
12,COc1ccc2c(c1OC)C(=O)N1N=C(c3ccc(F)cc3)CC21 (stereo not shown),2.15%
13,COc1ccc(/C=C2/C(=O)C(C)(C(C)C)CCC2C)cc1 (stereo not shown),5.61%
14,COc1ccc(-c2cc(-c3ccc(Cl)cc3)n[nH]2)c(O)c1,17.1%
15,c1ccc2c(c1)Cc1cc3ccccc3nc1-2,12.6%
16,C=CCNC(=O)c1ccc2c(=O)n(CCCN3CCCC3=O)c(=S)[nH]c2c1,4.18%
17,CCOC(=O)c1ccc2c(c1)N(CC#N)C(=O)C(C)(C)O2,-1.45%
18,COc1cc(C2C3=C(Nc4nc(N)[nH]c(=O)c42)c2ccccc2C3=O)ccc1O (stereo not shown),12%
19,COC(=O)C(C)N(C(=O)c1cccc2ccccc12)c1c(C)cccc1C (stereo not shown),2.83%
20,Cc1ccc(NC(=S)N2CCCN(Cc3ccc(F)cc3)C2)c(C)c1,-1.42%
21,Nc1ccc2nc(-c3ccccc3)cnc2c1,6.27%
22,Cc1cccc(NC(=O)c2ccc(OCc3c(C)noc3C)cc2)n1,-1.53%
23,CCOC(=O)C1CCN(C(=O)CSc2ccccc2)CC1,-5.23%

row,SMILES,"hERG current change (%, negative = inhibition) at 1uM"
1,Cc1cccc(/N=C/c2sc3ccccc3c2O)n1,11.4%
2,CCOc1cc(/C=C2/NC(=O)N(CC(=O)OC)C2=O)ccc1OC,6.2%
3,COCc1cc(=O)[nH]c2cc(NC(=O)C(C)(C)CCl)c(C)cc12,12.4%
4,Cc1ccc(C(c2sc3ncnn3c2O)N2CCC(C)CC2)cc1 (stereo not shown),10.4%
5,COCCCNC(=O)CN(Cc1ccccc1)S(=O)(=O)c1ccccc1,7.33%
6,Cc1c(NC(=O)C(C)N2CC(C)OC(C)C2)c(=O)n(-c2ccccc2)n1C (stereo not shown),18.9%
7,COc1ccc(-n2nnc3c(SCC(=O)c4ccccc4)ncnc32)cc1,5.34%
8,CCOC(=O)N1CCN(Cc2nc3cc(NC(=O)CC)ccc3n2CC)CC1,14.9%
9,COCCCNCCOCCOc1ccc(C)cc1[N+](=O)[O-].O=C(O)C(=O)O,-14.5%
10,Cc1nc2cnccc2n1C,13.5%
11,CSc1nc2n(n1)C(c1cccs1)C1=C(CCCC1=O)N2 (stereo not shown),6.41%
12,CC(=O)Nc1ccc2c(c1)nc(CN1CCCC1)n2C,-2.87%
13,COc1cccc(NC(=O)CSc2nc3ccccc3nc2N2CCOCC2)c1,8.17%
14,CC(=O)C1C(c2ccc(O)cc2)NC(=O)NC1(O)C(F)(F)F (stereo not shown),4.52%
15,COc1ccccc1N1CCN(C(=O)c2ccc3nc[nH]c3c2)CC1,9.21%
16,Cc1cc(SCC(=O)OCC(=O)N(CCC#N)c2ccccc2)nc2ccccc12,-13%
17,CN(C(=O)COc1cc(=O)n(C)c2ccccc12)c1ccc(Cl)cc1,-23.6%
18,CCOC(=O)c1sc2nc(CN3CCCCC3)nc(Cl)c2c1C,3.19%
19,CCc1ccc(C2C(C(C)=O)=C(C(=O)OC)Nc3nnnn32)cc1 (stereo not shown),6.79%
20,CCOC(=O)CC1C(=O)NCCN1Cc1ccc(OC)c(OC)c1 (stereo not shown),14.2%
21,O=[N+]([O-])c1cccc2ccc(/C=C/c3ccc(F)cc3)nc12,-1.42%
22,COc1cc(/C=N/n2c(-c3ccccc3)n[nH]c2=S)ccc1O,9.71%
23,COC(=O)c1ccc(/C=C/c2c(-c3ccc(OC)cc3)oc3ccccc23)cc1,8.54%
